Each structure is given as a SMILES string.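 Compound exposure: 48 hours, 5 concentrations, 96-well plates. GI50 = concentration required for 50% inhibition of growth.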 Activity calls are given as the source filed them. Cut-off read from the data, not from the text of the source: active = GI50 up to about 1.1 µM and inactive = higher.

This assay has as its system NCI-H322M. Briefly: NCI tumour cell line growth inhibition, 48 h.
In the case of `CCCCS/C(=C(/C#N)C(N)=O)c1cc2c([nH]1)CCCC2`, the GI50 is inactive: 14.6 µM. Turning to `CSc1ncnc2c1ncn2CC(=O)C1CCC2C3CCC4=CC(=O)CCC4(C)C3CCC12C` (configuration not stated), the GI50 was inactive: 19.6 µM. In the case of `O=C(CCc1ccc(O)c(O)c1)NCCc1cc(O)cc(O)c1` it was inactive: > 100 µM.

With `Oc1ccc2ccccc2c1OCc1nnc(CCCCCCCCc2nnc(COc3c(O)ccc4ccccc34)n2Nc2ccccc2)n1Nc1ccccc1`, the GI50 is inactive: 28.4 µM. In the case of `CCOc1cc(NC(C)=O)ccc1C(=O)NN1C(=O)/C(=C/c2cc(OC)c(OC)c(OC)c2)N=C1c1ccccc1` it was inactive: > 100 µM. As for `Cc1ccc(S(=O)(=O)N/N=C2\CC3C4CCC3C2C4)cc1` (configuration not stated), the figure is inactive: > 100 µM; as for `O=C1OC(=O)c2c1nc1ccccc1c2-c1ccccc1`, inactive: > 100 µM; as for `CCCCCCCCCc1cc(=O)c2c(O)cccc2o1`, inactive: > 100 µM. In the case of `CC(C)(C)c1cc2c(c(C(C)(C)C)c1O)CC(=O)O2` it was inactive: 68.5 µM.

Turning to `CC(=O)N[C@@H](Cc1ccc(O)cn1)C(=O)NCc1ccc(Cl)cc1`, the GI50 was inactive: > 100 µM. On to `CCOc1ccc(NCC(=O)N2CC(=O)Nc3ccccc32)cc1`, for which the GI50 was inactive: > 100 µM.

As for `CCCCc1c2c(nc3c1CCC/C3=C\c1ccccc1)C(=O)CCC2`, the GI50 is inactive: 21.1 µM. `O=c1cc(/C=C/c2ccccc2)c2ccc(O/C(=C\c3ccccc3)c3nc4ccccc4c(=O)o3)cc2o1`: the GI50 is inactive: 26.9 µM. As for `Cc1ccccc1-n1c(=O)sc2c(=O)n(-c3ccccc3)c(=S)[nH]c21`, the figure is inactive: > 100 µM.

On to `CC(=O)NNc1nc(C)c(C(=O)/C=C/c2ccc(N(C)C)cc2)s1`, for which the GI50 was inactive: > 100 µM. As for `O=C1Nc2ccccc2/C1=N/Nc1nc(-c2ccccc2)cs1`, the figure is inactive: 63 µM; as for `Cc1ccc(/N=N/c2c(-c3ccccc3)nn(C(=O)CC(=O)Nc3ccc(Cl)cc3)c2-c2ccccc2)cc1`, inactive: 38.7 µM. Turning to `CC(C)=NOC(=O)CNC(=O)C(Cc1ccccc1)NC(=O)C(C)NC(=O)OC(C)(C)C` (configuration not stated), the GI50 was inactive: > 100 µM. As to `COC(O)C(=O)c1c2c(cc3c1CC1(Cc4cc5c(cc4C1)CCC5)C3)CCC2` (configuration not stated), the GI50 is inactive: 14.8 µM. As for `O=C(O)c1c([N+](=O)[O-])cc(C(F)(F)F)cc1[N+](=O)[O-]`, the figure is inactive: > 100 µM; as for `CC1C[C@]2(C)C(=S)Nc3ccccc3[C@@H]2Nc2ccccc21` (some centres not stated), inactive: 15.9 µM; as for `CCN(C1=CC(=O)NC2CCCCN12)c1ccccc1` (configuration not stated), inactive: > 100 µM. As for `Cc1nn2c3c(nnc2c1C#N)C(=O)NN=C(N)S3`, the figure is inactive: > 100 µM; as for `CN(C)CCCNC(=O)c1cc(NC(=O)c2cc(NS(=O)(=O)c3ccc4c(c3)C(=O)c3ccccc3C4=O)cn2C)cn1C`, inactive: > 100 µM.

In the case of `COc1cc(C2c3cc4c(cc3C3OC[C@@H]2C3CO)OCO4)cc(OC)c1OC` (some centres not stated), the GI50 is inactive: 42.4 µM. For the compound `O=C1/C(=C/c2ccccc2)N=C2Sc3c([nH]cnc3=O)N12`, the GI50 is inactive: > 100 µM. Take `Clc1ccc(/C=C/c2nc3ccccc3s2)cc1Cl`: the GI50 was inactive: > 100 µM.

`COc1ccc(-n2cnc3c(NC(Cc4ccccc4)C(=O)O)ncnc32)cc1` (configuration not stated): the GI50 is inactive: 87.9 µM. As for `O=C(O)CCc1nc2c(n1-c1ccccc1)C(=O)c1ccccc1C2=O`, the figure is inactive: > 100 µM; as for `CC1(C)CC2=NO[Se]3=C2C(=NO3)C1`, inactive: 2.4 µM; as for `CC(C)CCC[C@@H](C)C1CCC2[C@@H]3CC=C4C[C@@H](OC(=O)CCC(=O)NCC[N+](C)(C)CCCS(=O)(=O)[O-])CC[C@]4(C)C3CC[C@@]21C` (some centres not stated), inactive: 22.3 µM. With `Cc1ccc(-c2[nH]c(=O)n(C3OC(CO)C(O)C(O)C3O)c(=O)c2C#N)cc1` (configuration not stated), the GI50 was inactive: > 100 µM.

Take `BrCc1ccc2ccc3ccc(CBr)nc3c2n1`: the GI50 was inactive: 9.79 µM.

`O=C(O)CN1CCN2CCCCCN(CC1)CCN(CC(=O)O)CC2`: the GI50 is inactive: > 100 µM. As for `Cc1c2c(n(C)c1C)C(=O)C1C(C2=O)C2(C)c3ccccc3C1(C)c1ccccc12` (configuration not stated), the figure is inactive: > 100 µM. On to `COc1ccc(/C(=N/O)C(c2ccc(OC)cc2)C2C(=O)Oc3ccccc32)cc1` (configuration not stated), for which the GI50 is inactive: > 100 µM. As for `COC(=O)C(Cc1nc2ccc(Cl)cc2nc1O)/C(=N/O)C(=O)Nc1cccc(Cl)c1C` (configuration not stated), the figure is inactive: > 100 µM. Turning to `CC(=O)Nc1ccc(-c2nnc(SCC(=O)Nc3ccccc3Cl)o2)cc1`, the GI50 is inactive: > 100 µM.

In the case of `Cc1nc(-c2ccc(Cl)cc2)cn2c1nc1ccccc12`, the GI50 was inactive: > 100 µM.

Consider `Cc1ccc(C(O)(c2ccc(C)cc2)c2ccccn2)cc1`, for which the GI50 was inactive: > 100 µM. In the case of `CN(CCCn1ccnc1[N+](=O)[O-])CCCn1ccnc1[N+](=O)[O-]` it was inactive: > 100 µM.

As for `OC1CC2CCCN(CCc3c1[nH]c1ccccc31)C2` (configuration not stated), the GI50 is inactive: > 100 µM.

Regarding `Cc1ccc2c(c1)-c1nc(N)c(C#N)c(-c3ccccc3)c1CCS2(=O)=O`, the GI50 was inactive: 23.9 µM. As for `CC1(C)C2CC3C(C)(C2)C31c1cc(Cl)ccc1N` (configuration not stated), the GI50 is inactive: 17.3 µM.

On to `C1=CN2C[n+]3ccc4ccccc4c3N=C2c2ccccc21`, for which the GI50 is inactive: 7.67 µM. Take `O=C(CSc1nc2ccc(Cl)cc2c(=O)n1-c1ccccc1)N/N=C1\C(=O)Nc2ccc(F)cc21`: the GI50 was inactive: 3.1 µM. On to `Cc1[nH]c2ccccc2c1C1=NO/C(=N\O)C(c2c(C)[nH]c3ccccc23)C1` (configuration not stated), for which the GI50 is inactive: > 74.1 µM. As for `COc1cc2ccc(/C(C)=N/OC(C)=O)cc2cc1OC`, the GI50 was inactive: > 100 µM. For the compound `CCCCCCc1cc(C=O)sc1-c1ccc(-c2sc(-c3ccc(-c4ccc(-c5cc(CCCCCC)c(-c6ccc(-c7sc(C=O)cc7CCCCCC)s6)s5)s4)s3)cc2CCCCCC)s1`, the GI50 is inactive: > 100 µM. As for `FC(F)(F)c1nc(-c2ccccc2)oc1Sc1oc(-c2ccccc2)nc1C(F)(F)F`, the figure is inactive: > 100 µM. `N#CCCN(CCC#N)c1ccc(C(=O)NN)cc1`: the GI50 is inactive: > 100 µM. In the case of `CC1(C)C2CC(=O)C1(C)C(OCc1ccccc1)C2` (configuration not stated) it was inactive: > 100 µM; in that of `CC(C)=NNC1=NC(C)(C)P(=O)(NNc2ncccn2)S1` (configuration not stated), inactive: > 100 µM. As for `O=c1cc(/N=N\c2ccc(Br)cc2)[nH]c(=S)[nH]1`, the figure is inactive: > 100 µM; as for `Cc1n[nH]c(=O)c2cc(-c3ccccc3)[nH]c12`, inactive: > 100 µM. As for `CN(C(=O)C12C3C4C1C1C2C3C41C(=O)O)C(C)(C)C` (configuration not stated), the figure is inactive: > 100 µM; as for `NC1=NN(c2ccccc2)C(=O)C1/C(=N\NC(=O)c1cc2ccccc2cc1O)C(=O)Nc1cccc(C(F)(F)F)c1` (configuration not stated), inactive: 44.5 µM. In the case of `COC(=O)CCC(=O)Nc1cc(C)ccc1C`, the GI50 was inactive: > 100 µM. With `C=C(CO)CC(O)c1ccccc1` (configuration not stated), the GI50 was inactive: > 100 µM. For the compound `CCN(c1ccccc1)[C@H]1C(=O)N(c2ccc([N+](=O)[O-])cc2)[C@H]1c1ccc(OC)cc1`, the GI50 was inactive: 95.7 µM. Consider `O=C1CC(c2ccsc2)n2cccc21` (configuration not stated), for which the GI50 is inactive: > 100 µM. `COC(=O)N1CC[C@@H]2CCC=C(c3cccc4c3OCO4)[C@@H]21`: the GI50 is inactive: > 100 µM. For `O=C(NCCCCCCCCNC(=O)c1cc(-c2ccccc2)nc2ccccc12)c1cc(-c2ccccc2)nc2ccccc12`, the GI50 is inactive: > 100 µM. Turning to `O=C(Cc1ccc(Cl)c(Cl)c1)NCC1(N2CCCCC2)CCCCC1`, the GI50 was inactive: > 100 µM.

In the case of `Sc1ccccc1S`, the GI50 was inactive: > 100 µM. As for `CCCN(CCC)C(=O)c1c(Cl)c2cccnc2n2c(C)cnc12`, the figure is inactive: > 100 µM; as for `O=C1[C@@H]2C(c3ccccc3Br)=NO[C@@H]2C(=O)N1c1ccc(Cc2ccc(N3C(=O)[C@H]4C(c5ccccc5Br)=NO[C@H]4C3=O)cc2)cc1`, inactive: > 100 µM. In the case of `C/C=C/C=C/c1nc(C#N)c(N)o1` it was inactive: > 100 µM. As for `CCOC(=O)c1ccc(-n2nnc(C(N)=O)c2O)cc1`, the figure is inactive: > 100 µM. Turning to `O=C1CC[N+]2=Cc3ccccc3O[B-]2(c2ccccc2)O1` (configuration not stated), the GI50 was inactive: > 100 µM. Consider `C=CCC12CCC(=O)[C@@]1(C)CC=C(O)C2=O` (some centres not stated), for which the GI50 is inactive: > 100 µM. As to `CON(C)C(=O)C(Cc1ccccc1)NC(=O)OC(C)(C)C` (configuration not stated), the GI50 is inactive: > 100 µM. For the compound `COC(C)(C)C(O)C(O)C[C@H](C)C1CC=C2C1(C)CCC1[C@@]3(C)CCC(OC(C)=O)C(C)(C)C3CC(OC3OC(COC(C)=O)C(O)C(O)C3O)[C@@]21C` (some centres not stated), the GI50 is inactive: 3.97 µM.

Consider `CC1CC(C)C2OC2(C)C[C@H](C)C(=O)NC(C)C(=O)N(C)[C@H](Cc2c(Br)[nH]c3ccccc23)C(=O)N[C@@H](c2ccc(O)cc2)CC(=O)O1` (some centres not stated), for which the GI50 was active: 0.729 µM. In the case of `C=CCCCCn1c2ccccc2c2c(C)c3c[n+](C)ccc3c(C)c21` it was active: 1.06 µM. `CSc1ccc2c(cc1=O)[C@@H](NC(=O)c1ccc([N+](=O)[O-])cc1)CCc1cc(O)c(O)c(O)c1-2`: the GI50 was inactive: 88.3 µM. As for `Cc1cc2c(=O)n(-c3ccc(F)cc3)c(C)nc2c(C(=O)O)c1C`, the figure is inactive: > 100 µM. Consider `CN(C)CCNc1nc(-c2cccs2)cc(-c2cccs2)n1`, for which the GI50 is inactive: 11.9 µM. Regarding `CCCCCC(=O)OCC1(CO)C/C(=C\CC(C(C)C)C(C)C)C(=O)O1` (configuration not stated), the GI50 was inactive: > 100 µM.

Take `CC1C2C=CC1C(c1c3ccc(=O)c(O)c-3oc3c(O)c(O)ccc13)C2C(=O)O` (configuration not stated): the GI50 is inactive: 39.8 µM.

`CCCC(=O)Oc1cc(OC(=O)CCC)c2c(C)cc(=O)oc2c1`: the GI50 is inactive: 57 µM. Take `COc1ccc2[nH]c3c(C)c4cc[n+](C)cc4c(C)c3c2c1`: the GI50 was active: 0.519 µM.

The values above are taken from ChEMBL document CHEMBL1201862, “PubChem BioAssay data set” (2004).
